Measured values taken from patent publication US20060270596A1 (CENTRE NATIONAL DE LA RECHERCHE SCIENTIFIQUE CNRS, published 2006).

Experiments:
[1] = biological target: T1, GST (glutathione S-transferase) control protein (UniProt P08515 = GST); experiment: GST pull-down, negative control: in vitro translated 35S-labelled chemokine or cytokine on GST alone immobilised on glutathione sepharose, SDS-PAGE, fluorography
T1 construct: Negative control in GST pull-down assays; also called GST beads; GST alone

[2] = biological target: T2, GST-THAP2 133-228 (chemokine-binding domain of THAP2) (human, UniProt Q9H0W7 133-228); experiment: GST pull-down: in vitro translated 35S-labelled protein on the GST fusion immobilised on glutathione sepharose, SDS-PAGE, fluorography
T2 construct: Immobilized on glutathione sepharose; not shown: glutathione S-transferase encoded by vector pGEX2T (Amersham Biosciences)

B1: human chemokine IP10/CXCL10, mature form ([…]) (ligand)
chain: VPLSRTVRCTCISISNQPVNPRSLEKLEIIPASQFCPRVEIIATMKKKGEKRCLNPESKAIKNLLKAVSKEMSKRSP
notes: Residues are printed against GenBank NM-001565
binding result [1]: no binding | binding result [2]: no binding
